Hit rate of the full screen: of about 4,800 compounds, about 410 (8.5%) showed an effect of 50% or more. This is one part of the list.
The compounds below were run on Plasmodium falciparum (assay: Confirmatory screen in NF54 pLDH assay, in single point, at 2uM, 72h). Details: timepoint 72 hour.
Assay type: functional, Erythrocyte

SMILES	% Inhibition
C[n+]1cc(-c2ccc3ccccc3n2)c(C#N)c2ccccc21	6%
Nc1nc2ccc(N3CCCC3)cc2s1	26%
Oc1ccc2ncccc2c1[C@@H](Nc1ccccn1)c1cccc(Br)c1	77%
O=C(c1c[nH]c2ccc(Br)cc12)N1CCC[C@H]1c1ccc2c(c1)OCCO2	13%
COCCCn1c(=O)c2ccccc2n(CC(=O)N2CCc3ccccc32)c1=O	-19%
C#CCCCOc1cccnc1N1CCC(OC)CC1	-3%
COc1cc(OC)c(NC(=O)[C@H]2CCCN(c3nc4ccccc4[nH]c3=O)C2)cc1Cl	13%
NC(=O)NC(=O)COc1ccc(Br)cc1	7%
CCn1cc(C(=O)N(C2CCCCC2)C2CCCCC2)c(C)n1	-13%
O=C(Nc1ccc(N2CCC(Cc3ccccc3)CC2)cc1C(=O)O)c1ccc(F)cc1	-18%
COc1nccc(NC(=O)c2ccccc2Cl)n1	-20%
COc1ccccc1CN1COc2cc3c(cc2C1)OCO3	52%
COc1ccc(-c2cc3c(N4CCN(C)CC4)nccn3n2)cc1OC	11%
COc1ncccc1CNC(=O)[C@@H]1CCN(c2cc(C)cc(C)c2)C1=O	7%
COc1ccc(-c2cc3n(n2)C[C@@](C)(C(=O)NCc2ccccc2OC)N(c2cccc(OC)c2)C3=O)cc1	23%
O=C1COc2ccc(S(=O)(=O)N[C@H]3COc4ccccc43)cc2N1	-1%
CCNS(=O)(=O)c1cc(C)ccc1C	8%
OC1CCCC1N1CCC(c2ccccc2)CC1 (stereo not given)	0%
CCCn1cc2c(C(=O)Nc3ccc(Br)cc3F)cc(=O)[nH]c2n1	-13%
COc1ccc(NC(=O)C2C3NC(=O)N(c4ccccc4)C2(C)Oc2ccc(Cl)cc23)cc1 (stereo not given)	-13%
CC(C)c1cc(C(=O)N2CC3CC4CC3C2C4O)n[nH]1 (stereo not given)	13%
CC1(C)CC(=O)C2(Cc3ccccc3N3CCN(Cc4ccccc4)C[C@H]32)C(=O)C1	12%
COc1ccc2c(c1)/C(=C1/SC(C(C)=O)=C(c3ccccc3)S1)C(=S)C(C)(C)N2C(=O)Nc1ccc(Cl)c(Cl)c1	-18%
Cc1ccnc(-c2ccc(NC(=O)[C@@H]3CCN(c4ccc(Cl)cc4)C3=O)cc2)n1	-22%
COCCNc1cncc(Br)c1	-7%
COc1cccc(C2=Nc3cccnc3N(CC(=O)Nc3ccc(C)c(Cl)c3)C(=O)C2)c1	-3%
CC(C)Cn1nc2ccc(S(=O)(=O)N3CCOCC3)cn2c1=O	10%

SMILES	% Inhibition
CN(Cc1cc(C(F)(F)F)ccc1Cl)[C@H]1CCc2nn(C)c(=O)n2CC1	-2%
O=C(Cc1ccccc1)Nc1cccc2c1C(=O)N(c1ccccc1)C2=O	-4%
O=C1CCCN1c1ccc(-c2csc(C3CC3)n2)cc1	-12%
Cc1c(N=C2NC3(CCCCC3)Cc3ccccc32)c(=O)n(C)n1-c1ccccc1	7%
Cc1cccc2sc(N3CCC[C@H](CNS(N)(=O)=O)C3)nc12	9%
COc1ccc(NC(=O)c2nc(Nc3ccccc3)c3ccccc3n2)cc1	7%
O=C1NCCCOc2cccc(c2)[C@H]2c3ccc(cc3CCN2C(=O)CCN2CCOCC2)Oc2ccc(O)c1c2	50%
Cc1ccc(C(=O)NCc2ccc(-c3nc4ccccc4s3)cc2)cc1	-2%
Cc1cc(NC(=O)Cn2cnc3nc(N(C)Cc4ccccc4)sc3c2=O)no1	-6%
O=C(c1cn(CC2CC2)nn1)N1CCCC2(CC2)C1	5%
Cc1ccc(C(=O)Nc2nnc(-c3ccoc3C)o2)cc1C	8%
CC(C)c1ccc(NC(=O)CCCC(=O)O)cc1	11%
CCOc1ccc(CN2CC[C@H](Nc3ncccn3)[C@@H](O)C2)cc1Cl	-18%
C=CCNC(=O)N(Cc1ccccn1)c1ccc(Oc2cccc(C)c2C)nc1	3%
COCCN(Cc1nc(C(=O)NC(C)C)cs1)C(=O)Nc1ccc(C(C)C)cc1	7%
CCOC(=O)N1CCc2c(nc(-c3ccc(C)cc3)n(CC(=O)Nc3ccc(C(C)C)cc3)c2=O)C1	-21%
CN(Cc1ccc(-c2ccccc2)cc1)c1cc([C@H]2C[C@@H](N)C2)nc(N)n1	54%
CN(Cc1nnc2n1CCC2)C(=O)Cc1cccs1	9%
COc1cc(OC)c(S(=O)(=O)NC(C)C)cc1S(=O)(=O)NC(C)C	9%
CN(C)CCNC(=O)Nc1ccn(-c2ncccc2Cl)n1	7%
O=C(COc1ccccc1)N1CC(n2cnnc2C2CC2)C1	-17%
O=C1CN(CC(=O)N2CCCC2CC2CC3CCC2C3)C(=O)N1 (stereo not given)	-13%
COc1ncnc2c1CN(C(=O)c1cc3c(s1)CC[C@H](C)C3)CC2	13%
O=C(NCc1ccccc1)c1cnn2c3c(cnc12)CCCCCC3	8%
C#CCN(CCCc1ccccc1C)[C@H]1CCS(=O)(=O)C1	-23%
O=C(Nc1ccc(OC2CCC2)c(F)c1)N1CC[C@H](O)C1	8%
O=C(Cc1ccccc1Cl)N1CCc2[nH]nc(C(=O)N3CCN(c4ccc(F)cc4)CC3)c2C1	-1%

SMILES	% Inhibition
Cc1ccc(N(CC#N)S(=O)(=O)c2ccc3nnc(C)n3c2)cc1	-15%
CCC(CC)C(=O)Nc1cccc(Cl)c1C	4%
O=S1(=O)NCCCCN1Cc1ccccc1	2%
COC(=O)CN(CCC(F)(F)F)c1nc(C)nc(N(C)C)n1	-10%
O=C([C@@H]1CCCN1c1ncc(C(F)(F)F)cc1Cl)N1Cc2ccccc2C1	-18%
COc1ccc(NC(=O)[C@@H](C)C2CCOCC2)cc1	-5%
COc1c(C)cc(C(=O)[C@H]2CCCN(c3cc(N)ncn3)C2)cc1C	24%
CCOc1cccc(Cn2cc(Br)ccc2=O)n1	3%
Cc1nn(Cc2ccccc2)c(=O)n1-c1ccc(OCc2ccccc2)cc1	-14%
CN(Cc1ccccc1)C(=O)C[C@H]1CCN(C(=O)c2cnccn2)C1	10%
O=C(C[C@H]1CCN(C(=O)c2ccc(F)cc2)C1)NC1CC1	-8%
Cn1cc(N)c(Oc2ccc3c(c2)OCO3)n1	6%
CN1C[C@@H](C(=O)Nc2csc(N3CCCCC3)n2)CC1=O	-2%
CC1CN(C)C(C)c2c1oc1ccc(N)cc21 (stereo not given)	-17%
C[C@@H]1CN(c2ccc(N)cn2)C[C@H](C)O1	-12%
CN(C(=O)Cn1cnc2nc(N3CCC(C(=O)NC4CC4)CC3)sc2c1=O)c1ccccc1	-13%
COc1ccc(OCC(=O)Nc2ccc(N3CCn4c(nc5cc(Cl)ccc54)C3)cc2OC)cc1	-5%
Cc1ccc(C(=O)NCCn2cnc3ccccc3c2=O)cn1	-7%
Cc1cc(C)nc(NCCC[C@H]2CCCCO2)n1	-15%
CCN(CC)CCn1c2ccccc2n2cc(-c3ccc(Br)cc3)nc12	47%
COCCOc1ccc2c(n1)CCN(C(=O)Nc1ccccc1C)C2	0%
CCOC(=O)c1ncc(Cl)c(C#N)c1Cl	-5%
CCOc1ccc(-c2ccnc3c(C(=O)NCc4ccc5c(c4)OCO5)cnn23)cc1	5%
Cc1ccn(Cc2nc(N)nc(N(C)C)n2)c(=O)c1C#N	4%
CCCc1nn(CC(N)=O)c(CCC)c1CC	-9%
C[C@H](Oc1ccccc1)C(=O)Nc1cccc(-c2nnco2)c1	-18%
CC1=C[C@@H](CNCc2cccnc2)[C@H](C(C)C)C[C@H]1Cc1nc2cccnc2[nH]1	18%

SMILES	% Inhibition
O=C(NCc1cccnc1Oc1ccccc1)c1cccnc1	10%
CCn1cc(C#N)c(=O)c2cc(F)c(N3CCN(Cc4ccccc4)CC3)cc21	78%
COC(=O)C1(C)CC2(C)CC(C)(C1)C(=O)N(C)C2=O (stereo not given)	-20%
O=C(CN1CCC(c2ccnn2CCO)CC1)N(Cc1ccccc1)C1CC1	-7%
CC(=O)c1ccc(N2CC[S+]([O-])CC2)nc1	12%
Cc1nc(CNc2cnc3cc(Cl)c(Cl)cc3n2)no1	8%
O=C(Nc1ccc(N2CCn3c(nc4cc(Cl)ccc43)C2)cc1)NC1CCCCC1	-13%
Cc1noc([C@H]2CCCN(C(=O)c3cc4c(s3)CCC4)C2)n1	-5%
Cc1nc(-c2ccc3[nH]c(=O)[nH]c3c2)cs1	9%
COc1ccc(CCc2n[nH]c(NC(=O)CCc3c[nH]c4ccccc34)n2)cc1OC	-4%
COc1cccc([C@H]2CC(=O)Nc3nc(N4CCCCC4)sc32)c1	16%
CCOc1ccc(-c2cc3c(=O)n(CCC(=O)N4CCCC4)ccn3n2)cc1	7%
Cc1nn(C)c(C)c1CNc1ccc2c(c1)CCC(=O)N2	-13%
CCN1C(=O)COc2ccc(-c3csc(NC(=O)[C@@H]4CCCO4)n3)cc21	9%
O=S(=O)(NC1CC(c2ccc(F)c(Cl)c2)C1)C1CC1 (stereo not given)	7%
Cn1cc(CNc2ccc3c[nH]nc3c2)cn1	4%
Cc1ccc(-n2ccc3nc(N4CCc5ccccc5C4)ncc3c2=O)cc1C	-13%
COc1ccc(C)cc1NC(=O)c1nn(-c2ccccc2)c2ccccc2c1=O	-18%
Cc1ccc(OCC(=O)Nc2cc(C)nn2-c2nc3c(cnn3-c3ccc(C)c(C)c3)c(=O)[nH]2)cc1	57%
OC1CCC(Nc2cncc(-n3cccn3)n2)CC1 (stereo not given)	0%
O=C(Nc1ccccc1-n1ccnc1)c1cnccn1	-7%
Cc1ccc(/N=C(\N)C(Cl)(Cl)Cl)c(C)c1	-2%
COc1ccc(-c2cn3cc(C)nc3n2C)cc1	0%
c1ccc(C2CCC(N3CCN(Cc4ccco4)CC3)CC2)cc1 (stereo not given)	6%
